# Test results taken from PubChem BioAssay AID624417 (National Center for Advancing Translational Sciences (NCATS), 2012).
# Hit rate of the full screen: of about 410,000 compounds, about 6,400 (1.6%) were called active. The inconclusive results got no clear call from the source; some entries with a clear call stand among them for comparison. The call rests on the fitted dose curve; in most records, active means well fitted inhibition curve with a large enough effect; inconclusive means small, poorly fitted or top-dose-only effect; inactive means no such curve, though single readings can be large or run the other way. Potencies of inconclusive entries are left out as doubtful fits.
# Target: Glucagon-like peptide 1 receptor (Homo sapiens) (UniProt P43220)
# Sequence of UniProt P43220 (P43220 whole entry, looked up): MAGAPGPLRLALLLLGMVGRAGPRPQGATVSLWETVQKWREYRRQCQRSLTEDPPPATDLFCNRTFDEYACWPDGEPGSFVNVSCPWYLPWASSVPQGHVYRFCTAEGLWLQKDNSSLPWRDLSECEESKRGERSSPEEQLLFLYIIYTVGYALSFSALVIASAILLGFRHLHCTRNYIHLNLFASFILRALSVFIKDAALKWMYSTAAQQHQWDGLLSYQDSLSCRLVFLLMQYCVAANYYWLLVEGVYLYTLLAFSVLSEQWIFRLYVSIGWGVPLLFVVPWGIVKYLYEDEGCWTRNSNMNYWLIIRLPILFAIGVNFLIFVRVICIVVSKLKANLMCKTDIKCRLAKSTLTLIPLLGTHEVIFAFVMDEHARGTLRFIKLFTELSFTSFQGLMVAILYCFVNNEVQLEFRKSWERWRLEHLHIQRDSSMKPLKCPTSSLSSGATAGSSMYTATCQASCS
# Assay: qHTS of GLP-1 Receptor Inverse Agonists (Inhibition Mode); further: nearly all actives have a fitted effect of over 55% in size
# Details: HEK293 GLP-1R CRE-luciferase, luminescence, 24 h; Potency: GLP-1R form is constitutively active unless noted; series mostly up to 38.3 µM
# How it was run: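 HEK293 cells stably co-expressing a cAMP-responsive luciferase reporter and constitutively active GLP-1R were seeded, incubated 12 h, then exposed to compounds for 24 h at 37 C. Luminescence was read 12 min after detection reagent; inverse agonists lower signal.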
# Potency means the concentration at half of the fitted maximal effect; tags describe the fitted curve by direction and shape.
row,SMILES,Potency
1,Cc1c(C=O)c2ccccc2n1Cc1ccc(F)cc1,"inconclusive [inhibitor, single point]"
2,COC(=O)C1=C(c2cc3ccccc3s2)C[C@@H]2CC[C@H]1N2C(=O)NCc1ccco1,"inconclusive [inhibitor, single point]"
3,COc1ccc(-n2c(SCCN(C)C)nc3ccccc3c2=O)cc1,"inconclusive [inhibitor, single point]"
4,COC1C(OC(=O)c2ccc(C)[nH]2)C(O)C(Oc2ccc3c(O)c(NC(=O)c4ccc(O)c(CC=C(C)C)c4)c(=O)oc3c2Cl)OC1(C)C (centres undefined),"inconclusive [inhibitor, single point]"
5,Cn1cccc1C1CCCN1CC(=O)Nc1ccc(C#N)c(Cl)c1 (centres undefined),"inconclusive [inhibitor, partial curve, poor fit]"
6,CC(C)N(Cc1ccco1)/N=C/c1c(O)n(Cc2ccccc2)c(=O)[nH]c1=O,"inconclusive [inhibitor, partial curve, poor fit]"
7,Cc1ccc(-n2c(=S)[nH]c3ccccc3c2=O)cc1C,"inconclusive [inhibitor, partial curve, poor fit]"
8,CN1CCN(CC(=O)Nc2ccc(Cl)cc2C(=O)c2ccccc2)CC1,"inconclusive [inhibitor, partial curve, poor fit]"
9,COc1ccccc1OC(=O)Oc1ccccc1OC,"inconclusive [inhibitor, partial curve]"
10,COc1ccc(N(CC(=O)Nc2cccc(SC)c2)S(C)(=O)=O)cc1Cl,"inconclusive [inhibitor, partial curve, poor fit]"
11,CCc1nc(N2CCNCC2)c(C#N)c2c1CSC(C)(C)C2,"inconclusive [inhibitor, partial curve, poor fit]"
12,CCOC(=O)C1(CCOc2ccccc2)CCN(Cc2ccccc2OC)CC1,active: 8.91 µM [setting not given]
13,CCOc1ccc(Cl)cc1CNCCc1ccccc1F,"inconclusive [inhibitor, partial curve, poor fit]"
14,COCCCNC(=O)c1c(NC(=O)c2ccccc2Cl)n(Cc2ccccc2)c2nc3ccccc3nc12,inactive
15,CN(C)CC#CCn1c2ccccc2c2ccccc21,"inconclusive [inhibitor, partial curve, poor fit]"
16,COC(=O)C1=C(c2ccccc2OCc2ccccc2)C[C@@H]2CC[C@H]1N2C(=O)NCc1ccccc1,"inconclusive [inhibitor, single point]"
17,Cc1cccc(-n2c(/C=C/c3cn(C)c4ccccc34)nc3ccccc3c2=O)c1,inactive
18,CCOC(=O)[C@]12Cc3cc(Cl)ccc3[C@H]1N(C(C)C)C(=O)c1ccccc12,"inconclusive [inhibitor, full curve, poor fit]"
19,CN1CCN(CCOC2c3ccccc3CSc3ccc(Cl)cc32)CC1 (centres undefined),"inconclusive [inhibitor, partial curve, poor fit]"
20,COc1ccc(NC(=O)CCn2cnc3onc(-c4ccc(F)cc4)c3c2=O)cc1OC,"inconclusive [inhibitor, partial curve, poor fit]"

row,SMILES,Potency
1,CN1C(=O)C(=Cc2ccccc2OCCOc2ccc([N+](=O)[O-])cc2)C(=O)N(C)C1=O,"inconclusive [inhibitor, single point]"
2,CCOC(=O)C1CCCN(c2ccc([N+](=O)[O-])c3nonc23)C1 (centres undefined),inactive
3,COC(=O)C1=C(c2ccc(-c3ccccc3)c(F)c2)C[C@@H]2CC[C@H]1N2C(=O)N1CCCCC1,active: 11.2 µM [setting not given]
4,CCOC(=O)[C@]12Cc3ccccc3[C@H]1N(C(C)C)C(=O)c1cc(OC)ccc12,"inconclusive [inhibitor, single point]"
5,COC(=O)C1=C(c2ccc(OC(F)(F)F)cc2)C[C@@H]2CC[C@H]1N2C(=O)NCCOc1ccc(OC)cc1,"inconclusive [inhibitor, partial curve, poor fit]"
6,CCCCCn1c(N)c(C(=O)NCCN2CCOCC2)c2nc3ccccc3nc21,"inconclusive [inhibitor, partial curve, poor fit]"
7,Cc1ccc(-c2nc(CN3C(=O)CN=C(c4ccccc4)c4cc(Cl)ccc43)c(C)o2)cc1,"inconclusive [inhibitor, single point]"
8,CCN(CC)CC(=O)Nc1ccc(Cl)cc1C(=O)c1ccccc1,"inconclusive [inhibitor, partial curve, poor fit]"
9,COC(=O)C1=C(c2cccc(OCc3ccccc3)c2)C[C@@H]2CC[C@H]1N2C(=O)NCc1ccc(OC)c(OC)c1,"inconclusive [inhibitor, single point]"
10,O=C(NCCN1CCC(n2c(=O)[nH]c3ccccc32)CC1)c1ccc2ccccc2c1,"inconclusive [inhibitor, partial curve, poor fit]"
11,O=C(O)c1ccccc1-c1ccc(C=C2C(=O)N(c3ccccc3)C(=S)N(c3ccccc3)C2=O)o1,"inconclusive [inhibitor, partial curve, poor fit]"
12,O=C(CN1CCCCC1)NCC(=O)Nc1ccc(Br)cc1C(=O)c1ccccc1,"inconclusive [inhibitor, partial curve, poor fit]"
13,CCOC(=O)[C@]12Cc3cc(OC)ccc3[C@H]1N(CCC(=O)OC)C(=O)c1cc(OC)ccc12,"inconclusive [inhibitor, single point]"
14,Clc1ccc(CSc2nnc(-c3ccccn3)n2Cc2ccco2)cc1Cl,"inconclusive [inhibitor, partial curve]"
15,COC(=O)c1cn(Cc2ccc(F)cc2)c2ccccc12,active: 11.2 µM
16,OCCNCCc1c[nH]c2ccc(OCc3ccccc3)cc12,"inconclusive [inhibitor, partial curve, poor fit]"
17,COc1ccc(/C=C2\C(=N\O)C3CCN2CC3)cc1,"inconclusive [inhibitor, single point]"
18,COC(=O)c1cn(S(=O)(=O)c2ccccc2)c2ccccc12,"inconclusive [inhibitor, partial curve, poor fit]"
19,Cc1ncoc1C(=O)NCC1=C(c2cccc3ccccc23)C[C@@H]2CC[C@H]1N2Cc1ccco1,"inconclusive [inhibitor, single point]"
20,COC1=CC=C2[C@H]3Cc4ccc(OC)c5c4[C@@]2(CCN3C)C1O5 (some centres undefined),inactive

row,SMILES,Potency
1,Cc1cc(Cl)ccc1C(=O)C1CCCN(Cc2ccon2)C1 (centres undefined),"inconclusive [inhibitor, single point]"
2,CC(=O)c1ccc(NC(=O)CSc2nc(=O)cc(N)n2-c2ccccc2)cc1,inactive
3,COc1ccc(Br)cc1CNCCc1cccc(Cl)c1,"inconclusive [inhibitor, single point]"
4,O=Cc1cn(Cc2ccc(F)cc2)c2ccccc12,"inconclusive [inhibitor, partial curve, poor fit]"
5,CC1=CC(C)CC(C)OC(=O)CC(c2ccc(O)cc2)NC(=O)C(Cc2c(Br)[nH]c3ccccc23)N(C)C(=O)C(C)NC(=O)C(C)C1 (centres undefined),"inconclusive [inhibitor, full curve, poor fit]"
6,COc1ccccc1NS(=O)(=O)c1cc(NC(=O)c2ccc(Cl)nc2)ccc1N1CCCC1,"inconclusive [inhibitor, partial curve, poor fit]"
7,COc1ccc(N2CCN(Cc3nc4c(c(=O)[nH]c(=O)n4C)n3Cc3ccc(Cl)cc3)CC2)cc1,"inconclusive [inhibitor, single point]"
8,O=S1(=O)N(CCN2CC=C(c3c[nH]c4cc(F)ccc34)CC2)c2cccc3c2N1CCC3,"inconclusive [inhibitor, partial curve, poor fit]"
9,Clc1cccc(Cl)c1Cn1nnc(N2CCCC2)n1,"inconclusive [inhibitor, single point]"
10,COCOC1CCC2C3CCC4=CC(=O)CCC4=C3C=CC12C (centres undefined),inactive
11,O=C(CF)N(O)c1ccc(C=Cc2ccccc2)cc1,"inconclusive [inhibitor, single point]"
12,COCCNC(=O)N1[C@H]2CC[C@@H]1C(C(=O)OC)=C(c1ccc(OC(F)(F)F)cc1)C2,inactive
13,CC(C)(C)c1ccc(C(=O)C2CCCN(Cc3ccon3)C2)cc1 (centres undefined),"inconclusive [inhibitor, single point]"
14,CCC(C)n1c(O)c(/C=N/Nc2ccccc2)c(=O)[nH]c1=S (centres undefined),"inconclusive [inhibitor, full curve, poor fit]"
15,C=CC1CN2CCC1CC2C(O)c1ccnc2ccccc12 (centres undefined),"inconclusive [inhibitor, partial curve]"
16,CC(=O)Nc1ccc(OC(=O)N(C)C)cc1,"inconclusive [inhibitor, partial curve, poor fit]"
17,COc1ccc(CCNC(=O)c2ccc3c(c2)N=C(C)c2cc(C)ccc2S3)cc1OC,"inconclusive [inhibitor, single point]"
18,CCOC(=O)C(O)(c1ccc(NC(=S)NC(=O)c2ccc(Cl)cc2Cl)c(C)c1)C(F)(F)F (centres undefined),active: 3.98 µM [setting not given]
19,COc1ccccc1CC(=O)Nc1ccc2c(c1)OC1(CCCC1)O2,"inconclusive [inhibitor, partial curve, poor fit]"
